Data as given in a compilation of properties of binary mixtures (doi:10.1016/j.sjme.2017.07.002).
Some of these densities may be calculated back from excess volumes.

Assay: xn = mol fraction of the nth substance listed
Conditions: 100 kPa

SMILES: OCC(F)(F)F + CCCC[n+]1ccn(C)c1.F[P-](F)(F)(F)(F)F
- mass density (288.15 K, x1 = 0.109): 1377 kg/m3
- mass density (288.15 K, x1 = 0.304): 1379 kg/m3
- mass density (288.15 K, x1 = 0.401): 1380 kg/m3
- mass density (288.15 K, x1 = 0.52): 1383 kg/m3
- mass density (288.15 K, x1 = 0.704): 1388 kg/m3
- mass density (288.15 K, x1 = 0.798): 1392 kg/m3
- mass density (288.15 K, x1 = 0.9): 1397 kg/m3
- mass density (288.15 K, x1 = 0.95): 1399 kg/m3
- mass density (288.15 K, x1 = 1): 1400 kg/m3
- mass density (293.15 K, x1 = 0.109): 1373 kg/m3
- mass density (293.15 K, x1 = 0.202): 1373 kg/m3
- mass density (293.15 K, x1 = 0.401): 1376 kg/m3
- mass density (293.15 K, x1 = 0.52): 1377 kg/m3
- mass density (293.15 K, x1 = 0.634): 1380 kg/m3
- mass density (293.15 K, x1 = 0.704): 1382 kg/m3
- mass density (293.15 K, x1 = 0.798): 1385 kg/m3
- mass density (293.15 K, x1 = 0.9): 1390 kg/m3
- mass density (293.15 K, x1 = 0.95): 1392 kg/m3
- mass density (293.15 K, x1 = 1): 1391 kg/m3
- mass density (303.15 K, x1 = 0.109): 1364 kg/m3
- mass density (303.15 K, x1 = 0.202): 1364 kg/m3
- mass density (303.15 K, x1 = 0.304): 1365 kg/m3
- mass density (303.15 K, x1 = 0.52): 1367 kg/m3
- mass density (303.15 K, x1 = 0.704): 1370 kg/m3
- mass density (303.15 K, x1 = 0.798): 1372 kg/m3
- mass density (303.15 K, x1 = 0.95): 1376 kg/m3
- mass density (303.15 K, x1 = 1): 1374 kg/m3
- mass density (313.15 K, x1 = 0.109): 1355 kg/m3
- mass density (313.15 K, x1 = 0.202): 1355 kg/m3
- mass density (313.15 K, x1 = 0.52): 1357 kg/m3
- mass density (313.15 K, x1 = 0.634): 1357 kg/m3
- mass density (313.15 K, x1 = 0.798): 1359 kg/m3
- mass density (313.15 K, x1 = 0.9): 1361 kg/m3
- mass density (313.15 K, x1 = 1): 1356 kg/m3
- mass density (323.15 K, x1 = 0.109): 1347 kg/m3
- mass density (323.15 K, x1 = 0.202): 1347 kg/m3
- mass density (323.15 K, x1 = 0.304): 1347 kg/m3
- mass density (323.15 K, x1 = 0.401): 1347 kg/m3
- mass density (323.15 K, x1 = 0.52): 1347 kg/m3
- mass density (323.15 K, x1 = 0.634): 1347 kg/m3
- mass density (323.15 K, x1 = 0.704): 1347 kg/m3
- mass density (323.15 K, x1 = 0.798): 1346 kg/m3
- mass density (323.15 K, x1 = 0.9): 1346 kg/m3
- mass density (323.15 K, x1 = 0.95): 1344 kg/m3
- mass density (323.15 K, x1 = 1): 1338 kg/m3
- mass density (333.15 K, x1 = 0.109): 1338 kg/m3
- mass density (333.15 K, x1 = 0.304): 1338 kg/m3
- mass density (333.15 K, x1 = 0.401): 1337 kg/m3
- mass density (333.15 K, x1 = 0.52): 1336 kg/m3
- mass density (333.15 K, x1 = 0.634): 1336 kg/m3
- mass density (333.15 K, x1 = 0.9): 1331 kg/m3
- mass density (333.15 K, x1 = 1): 1319 kg/m3

SMILES: CCCC[n+]1ccn(C)c1.F[P-](F)(F)(F)(F)F + OCC(F)(F)F
- mass density (288.15 K, x2 = 0): 1377 kg/m3
- mass density (293.15 K, x2 = 0): 1372 kg/m3
- mass density (313.15 K, x2 = 0): 1355 kg/m3
- mass density (323.15 K, x2 = 0): 1347 kg/m3
- mass density (333.15 K, x2 = 0): 1338 kg/m3
